# Measured values as given in PubChem BioAssay (NCI).
#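 Briefly, cells in 96-well plates were exposed to five compound concentrations for 48 h, and endpoints were estimated by linear interpolation. GI50: concentration for 50% inhibition of growth. TGI: total growth inhibition.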
# System: NCI-H322M lung
# Test: growth of human tumour cells (NCI), 48 h
Compound,GI50,TGI
CC1=C(C(=O)Nc2ccccc2)C(c2cccc3ccccc23)n2c(nc3ccccc32)N1 (centres undefined),> 100 µM,> 100 µM
O=C(O)c1ccc(-c2ccc(/C=N/NC(=O)c3[nH]c4ccc(Br)cc4c3-c3ccccc3)s2)cc1,17.5 µM,50.4 µM
